Each structure is given as a SMILES string. The list shows a part of the results. Repeats are few or missing, and single values can be far off.
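Also: cells treated in 1,536-well plates, then fixed and DAPI-stained, with nuclei counted from automated high-throughput microscope images.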

The assay has as its system C32. Kind of assay: cell count relative to DMSO control; melanoma cells; higher = more viable cells. Particulars: library dose: standard library concentration; 72 h.
Regarding `CC[C@]1(O)C[C@H]2CN(CCc3c([nH]c4ccccc34)[C@@](C(=O)OC)(c3cc4c(cc3OC)N(C=O)[C@H]3[C@@](O)(C(=O)OC)[C@H](OC(C)=O)[C@]5(CC)C=CCN6CC[C@]43[C@@H]65)C2)C1` [vincristine] + CCCS(=O)(=O)Nc1ccc(F)c(C(=O)c2c[nH]c3ncc(Cl)cc23)c1F [PLX4720] (first compound 0.0005 µM, partner dose 0.4 µM), the cell count worked out at 65.1%. With `Cc1cc(Nc2cc(N3CCN(C)CC3)nc(Sc3ccc(NC(=O)C4CC4)cc3)n2)n[nH]1` [Tozasertib] + Cc1nc(Nc2ncc(C(=O)Nc3c(C)cccc3Cl)s2)cc(N2CCN(CCO)CC2)n1 [dasatanib] (first compound 0.03 µM, partner dose 0.02 µM), the cell count amounted to 57.3%. With `CC[C@]1(O)C[C@H]2CN(CCc3c([nH]c4ccccc34)[C@@](C(=O)OC)(c3cc4c(cc3OC)N(C=O)[C@H]3[C@@](O)(C(=O)OC)[C@H](OC(C)=O)[C@]5(CC)C=CCN6CC[C@]43[C@@H]65)C2)C1` [vincristine] + COc1ccc2c(c1)CCC1C2CCC2(C)C(NCCCCCCN3C(=O)C=CC3=O)CCC12 [U73122] (first compound 0.0005 µM, partner dose 2 µM), the cell count came out at 45.6%. `Cc1cc(Nc2cc(N3CCN(C)CC3)nc(Sc3ccc(NC(=O)C4CC4)cc3)n2)n[nH]1` [Tozasertib] + N#Cc1c(O)c2c(-c3ccc(-c4ccccc4O)cc3)csc2[nH]c1=O [A769662] (first compound 0.03 µM, partner dose 10 µM) returned a cell count of 81.7%. `Cc1cc(Nc2cc(N3CCN(C)CC3)nc(Sc3ccc(NC(=O)C4CC4)cc3)n2)n[nH]1` [Tozasertib] + Cn1cncc1[C@@](N)(c1ccc(Cl)cc1)c1ccc2c(c1)c(-c1cccc(Cl)c1)cc(=O)n2C [tipifarnib] (first compound 0.03 µM, partner dose 0.05 µM) registered a cell count of 94.8%. `Cc1cc(Nc2cc(N3CCN(C)CC3)nc(Sc3ccc(NC(=O)C4CC4)cc3)n2)n[nH]1` [Tozasertib] + C#Cc1cccc(Nc2ncnc3cc(OCCOC)c(OCCOC)cc23)c1 [erlotinib] (first compound 0.03 µM, partner dose 4 µM) displayed a cell count of 92.7%. In turn, `Cc1cc(Nc2cc(N3CCN(C)CC3)nc(Sc3ccc(NC(=O)C4CC4)cc3)n2)n[nH]1` [Tozasertib] + COc1cc(N2CCC(N3CCN(C)CC3)CC2)ccc1Nc1ncc(Cl)c(Nc2ccccc2S(=O)(=O)C(C)C)n1 [NVP-TAE684] (first compound 0.03 µM, partner dose 0.4 µM) returned a cell count of 57.7%. Regarding `CC[C@]1(O)C[C@H]2CN(CCc3c([nH]c4ccccc34)[C@@](C(=O)OC)(c3cc4c(cc3OC)N(C=O)[C@H]3[C@@](O)(C(=O)OC)[C@H](OC(C)=O)[C@]5(CC)C=CCN6CC[C@]43[C@@H]65)C2)C1` [vincristine] + CCc1ccc(CCOc2ccc(CC3SC(=O)NC3=O)cc2)nc1 [pioglitazone] (first compound 0.0005 µM, partner dose 10 µM), the cell count turned out to be 48.2%. `Cc1cc(Nc2cc(N3CCN(C)CC3)nc(Sc3ccc(NC(=O)C4CC4)cc3)n2)n[nH]1` [Tozasertib] + COc1cc(Nc2ncc(F)c(Nc3ccc4c(n3)NC(=O)C(C)(C)O4)n2)cc(OC)c1OC [Tamatinib] (first compound 0.03 µM, partner dose 2 µM) yielded a cell count of 78.7%. Compound `Cc1cc(Nc2cc(N3CCN(C)CC3)nc(Sc3ccc(NC(=O)C4CC4)cc3)n2)n[nH]1` [Tozasertib] + C[C@@H](Oc1cc(-c2cnn(C3CCNCC3)c2)cnc1N)c1c(Cl)ccc(F)c1Cl [Crizotinib] (first compound 0.03 µM, partner dose 1 µM) gave a cell count of 73.2%. `CC[C@]1(O)C[C@H]2CN(CCc3c([nH]c4ccccc34)[C@@](C(=O)OC)(c3cc4c(cc3OC)N(C=O)[C@H]3[C@@](O)(C(=O)OC)[C@H](OC(C)=O)[C@]5(CC)C=CCN6CC[C@]43[C@@H]65)C2)C1` [vincristine] + CN(NC(=O)CC(=O)NN(C)C(=S)c1ccccc1)C(=S)c1ccccc1 [STA4783] (first compound 0.0005 µM, partner dose 0.03 µM) yielded a cell count of 27.5%. On to `CC[C@]1(O)C[C@H]2CN(CCc3c([nH]c4ccccc34)[C@@](C(=O)OC)(c3cc4c(cc3OC)N(C=O)[C@H]3[C@@](O)(C(=O)OC)[C@H](OC(C)=O)[C@]5(CC)C=CCN6CC[C@]43[C@@H]65)C2)C1` [vincristine] + NC1(c2ccc(-c3nc4ccn5c(=O)[nH]nc5c4cc3-c3ccccc3)cc2)CCC1 [MK2206] (first compound 0.0005 µM, partner dose 2 µM), for which the cell count was determined as 53.3%. Take `CC[C@]1(O)C[C@H]2CN(CCc3c([nH]c4ccccc34)[C@@](C(=O)OC)(c3cc4c(cc3OC)N(C=O)[C@H]3[C@@](O)(C(=O)OC)[C@H](OC(C)=O)[C@]5(CC)C=CCN6CC[C@]43[C@@H]65)C2)C1` [vincristine] + O=C(O)c1ccc(-c2c[nH]c3ncc(-c4ccccc4)cc23)cc1C1CCCC1 [GSK650394] (first compound 0.0005 µM, partner dose 0.8 µM): the cell count was found to be 91.1%. Under `CC[C@]1(O)C[C@H]2CN(CCc3c([nH]c4ccccc34)[C@@](C(=O)OC)(c3cc4c(cc3OC)N(C=O)[C@H]3[C@@](O)(C(=O)OC)[C@H](OC(C)=O)[C@]5(CC)C=CCN6CC[C@]43[C@@H]65)C2)C1` [vincristine] + COc1ccc(C2=N[C@@H](c3ccc(Cl)cc3)[C@@H](c3ccc(Cl)cc3)N2C(=O)N2CCNC(=O)C2)c(OC(C)C)c1 [Nutlin-3] (first compound 0.0005 µM, partner dose 0.5 µM) stands 71.6%; under `N#CC[C@H](C1CCCC1)n1cc(-c2ncnc3[nH]ccc23)cn1` [ruxolitinib] + CC(=O)c1c(C)c2cnc(Nc3ccc(N4CCNCC4)cn3)nc2n(C2CCCC2)c1=O [palbociclib] (first compound 5 µM, partner dose 0.2 µM), 65.3%.

Values taken from the supplement of paper PMC4604168 (melanoma cell lines).
